The record followed here is PubChem BioAssay AID1508624 (National Center for Advancing Translational Sciences (NCATS), 2021).

The assay in a line: Primary qHTS for Identification of Small Molecule Activators of Huntingtin-Antisense Promoter Activity. Also: nearly all actives have a fitted effect of over 55% in size. The note with it: HEK293 HTT-AS promoter firefly luciferase reporter, 24 h. The source says: Assay Provider: Russell L. Margolis M.D.
Department Neurology, Johns Hopkins University School of Medicine, Baltimore, MD
Huntington's Disease (HD) is a neurodegenerative disorder caused by a CAG repeat expansion in exon 1 of huntingtin (HTT). While there are currently no disease-modifying treatments for HD, recent efforts have focused on development of nucleotide-based therapeutics to lower HTT expression. As an alternative to siRNA or oligonucleotide methods, we hypothesized that suppression of HTT expression might be accomplished by small molecules that either (1) directly decrease HTT expression by suppressing HTT promoter activity or (2) indirectly decrease HTT expression by increasing the promoter activity of HTT-AS, the gene antisense to HTT that appears to inhibit expression of HTT.
We developed and employed a high throughput screen for modifiers of HTT and HTT-AS promoter activity using luminescent reporter HEK293 cells; of the 52,041 compounds tested, we identified 898 replicable hits. We used a rigorous stepwise approach to assess compound toxicity and the capacity of the compounds to specifically lower huntingtin protein in 5 different cell lines, including HEK293 cells, HD lymphoblastoid cells, mouse primary neurons, HD iPSCs differentiated into cortical-like neurons, and HD hESCs. We found no compounds which were able to lower huntingtin without lowering cell viability in all assays, though the potential efficacy of a few compounds at non-toxic doses could not be excluded.
SEQUENCE No. (1, 2, 3, etc.); […] (e.g., Cells, Incubation, Reagent, etc.); VALUE and DESCRIPTION.
1; Reagent; 4 uL; 2,500 Hek293 luciferase reporter cells per wells
3; Compound; 23 nL; Control inhibitor / compound library
5; Reagent; 2.5 uL; Firefly Luc reagent; Dual-Glo Luciferase Reporter Assay System (Promega)
6; Time; 10 min; room temperature incubation
7; Detection; Luminescence; FLuc
NOTES (numbers refer to sequence above)
1; High-throughput screening, measuring luminescence from a Hek293 luciferase reporter, was performed in 1,536 well white-walled tissue-culture treated plates. 2,500 cells were plated in 4 µL of Opti-MEM per well using a Multidrop Combi Reagent Dispenser (ThermoFisher).
2; Assay plates were cultured for 24 hours.
3; Control inhibitor (PTC124; final concentration of 50 uM) and compound library (at final concentrations of 460 nM - 57.5 uM) were added to the assay plate using the Kalypsis Pintool Robotic System equipped with 1536 pinheads.
4; Cells were then incubated for 24 hours at 37 degrees C prior to luminescence measurements.
5; In all cases, luminescence was measured using the Dual-Glo Luciferase Reporter Assay System (Promega) following the manufacturer's instructions.
6; Room temperature incubation.
7; Luminescence signal was obtained using the PerkinElmer ViewLux plate reader. Results were normalized to vehicle control (0% activity) and zero RLU (-100% activity).
For orientation: In qHTS, concentration-response curves come from the screen itself.

Where [1] appears, read: at 57.5 µM (top of the series) unless noted.

Where “and” joins values, the source holds several entries; their conditions need not be identical. Equal entries are not always repeated. Among all 48,000 compounds or so, about 120 (0.25%) were called active. Roughly 4% stayed inconclusive and do not appear here. Calls follow the shape of the dose curve; as a rule, active = well fitted activation curve with a large enough effect; inconclusive = small, poorly fitted or top-dose-only effect, or another doubt; inactive = no such curve, though single readings can be large or run the other way. Some of the results follow.

`CC1=C2[C@H]3OC(=O)[C@@H](C)[C@@H]3CC[C@@]2(C)C=CC1=O`: the activity change, positive = activation under setting [1] is inactive: -13.6%.
As for `C1CN2CCC1CC2`, the activity change, positive = activation under setting [1] is inactive: -1.56% [at 57.5 µM, percent change from vehicle, -100% = no light].
Same read-out and setting: under `Cc1ccccc1OCC(=O)N1CCN(CCc2ccccn2)CC1` stands inactive: -7.44%; under `O=[N+]([O-])c1c2ccccc2cc2ccccc12`, inactive: 13.9% [at 116 µM].
The same measure, in the same setting: then `O=C(NC(=O)c1c(F)cccc1F)Nc1cc(Cl)c(OC(F)(F)C(F)C(F)(F)F)cc1Cl` (stereo not drawn), with inactive: -14.2%; and `CNCC(=O)c1ccc(O)c(O)c1`, with inactive: -6.22%; and `Cc1ccccc1-n1c(/C=C/c2c(C)[nH]c3ccccc23)nc2ccccc2c1=O`, with inactive: -45%.
Same read-out and setting: then `COc1ccc(OCC(=O)N2CCN(CCc3ccncc3)CC2)cc1`, with inactive: -13.7% [at 57.5 µM, percent change from vehicle, -100% = no light].
For `Cc1ccccc1-n1nc(C)c2c1NC(=O)CSC2c1ccc(Cl)cc1` (stereo not drawn), under setting [1], the activity change, positive = activation was inactive: -24.1%.
Same read-out and setting: under `CC(C)N(CCNC(=O)CN1CCCC1=O)C(C)C` stands inactive: -8.25%; under `NC1=NC(=O)N2CC12` (stereo not drawn), inactive: -5.22%.
Still for that read-out and setting: under `Cc1c(C(c2ccc(Br)cc2)c2c(O)c3ccccc3oc2=O)c(=O)n(-c2ccccc2)n1C` (stereo not drawn) stands inactive: -30.2%; under `COC1=CC(C)=C[C@@H](C)[C@@H](O)[C@@H](C)CC(C)=CC=C[C@H](OC)[C@H]([C@@H](C)[C@@H](O)[C@H](C)[C@@]2(O)C[C@@H](O)[C@H](C)[C@@H](C(C)C)O2)OC1=O`, inactive: -27.8%; under `Cc1ccc(Cn2cccc(C(=O)Nc3cc(C)on3)c2=O)cc1`, inactive: -2.62% [at 57.5 µM, percent change from vehicle, -100% = no light].
For `C[C@]12CC[C@H]3[C@@H](CC[C@@]45O[C@H]4C(O)=C(C#N)C[C@]35C)[C@H]1CC[C@H]2O`, the activity change, positive = activation under setting [1] was inactive: -10.2%.
Regarding `CC(C)(C)NCC(O)c1cc(Cl)c(N)c(Cl)c1` (stereo not drawn), the activity change, positive = activation under setting [1] is inactive: 0.63%.
On the same count and under the same terms, then `Fc1ccc(C(OCCN2CCN(CCCc3ccccc3)CC2)c2ccc(F)cc2)cc1`, with inactive: -27.4% and inactive: -42.9%; and `COC(=O)C1=CCCN(C)C1`, with inactive: -10.1% and inactive: -5.85%.
Take `CN(C)c1ccc(NC(=O)c2sc3nc4c(cc3c2N)N2CCC4CC2)cc1`: the activity change, positive = activation under setting [1] was inactive: -13.4% [at 57.5 µM, percent change from vehicle, -100% = no light].
Regarding `C=C(C)[C@H]1Cc2c(ccc3c2O[C@@H]2COc4cc(OC)c(OC)cc4[C@@H]2C3=O)O1`, the activity change, positive = activation under setting [1] was inactive: -71.5%.
In the case of `CC(N[C@H]1C[C@H]1c1ccccc1)c1ccc2c(c1)OCCO2` (stereo partly drawn), the activity change, positive = activation under setting [1] is inactive: 1.68%.
For the compound `COC(=O)[C@@H](N)CCCN=C(N)N[N+](=O)[O-]`, the activity change, positive = activation under setting [1] is inactive: 1.44%.
On the same count and under the same terms, then `CCCC12CN3CC(C)(CN(C1)C3c1c(C)[nH]c(=O)[nH]c1=O)C2=O` (stereo not drawn), with inactive: 0.884% [at 57.5 µM, percent change from vehicle, -100% = no light].
On the same count and under the same terms, under `O=C(N/N=C/c1ccc([N+](=O)[O-])o1)c1cc([N+](=O)[O-])cc([N+](=O)[O-])c1O` stands inactive: 3.1%; under `Cc1ccc(-c2nn3c(=O)cc(CN4CCN(C(=O)COc5ccc(C)c(C)c5)CC4)nc3s2)cc1`, inactive: -9.59%; under `COc1ccc(Br)cc1C1SCC(=O)Nc2c1c(C)nn2-c1ccccc1C` (stereo not drawn), inactive: -23% [at 57.5 µM, percent change from vehicle, -100% = no light].
Still for that read-out and setting: then `CCCC1=Nc2cc(C(=O)NCCCN(CC)CC)ccc2Sc2ccccc21`, with inactive: -10.5%; and `C[C@H](CN1CCOCC1)C(C(=O)N1CCCC1)(c1ccccc1)c1ccccc1`, with inactive: -29% [at 116 µM].
With `CCN(CC)C(=O)c1ccc(NC(=O)c2ccc(-c3nn(C)c(=O)c4ccccc34)cc2)cc1`, the activity change, positive = activation under setting [1] is inactive: -10.1%.
Regarding `Cc1ccc(-c2nc(CN3C(=O)CN=C(c4ccccc4)c4ccccc43)c(C)o2)cc1`, under setting [1], the activity change, positive = activation was inactive: -20.7% [at 57.5 µM, percent change from vehicle, -100% = no light].
`CCC1(CC)C(=O)C=CNC1=O`: under setting [1], the activity change, positive = activation is inactive: -5.47%.
On to `COc1ccc(Cc2nccc3cc(OC)c(OC)cc23)cc1OC`, for which the activity change, positive = activation runs as follows: (at 57.5 µM (top of the series)) inactive: -34.2%; (at 57.5 µM (top of the series), percent change from vehicle, -100% = no light) inactive: -16.8%.
For the compound `COc1cccc(NC(=O)c2cccn(Cc3ccccc3C)c2=O)c1`, under setting [1], the activity change, positive = activation is inactive: -35.8%.
On the same count and under the same terms, then `COc1ccccc1C1SCC(=O)Nc2c1c(C)nn2-c1cccc(C)c1` (stereo not drawn), with inactive: -16.4% [at 57.5 µM, percent change from vehicle, -100% = no light].
Still for that read-out and setting: under `Cc1ccc(Cn2cccc(C(=O)Nc3ccc4c(c3)OCCO4)c2=O)cc1` stands inactive: 11.2%; under `O=C1c2ccccc2C(=O)c2ccccc21`, inactive: -3.31% [at 25.1 µM]; under `Cc1ccc2c(=O)n(-c3cccc(Cl)c3)c(=O)[nH]c2c1`, inactive: -6.3%.
